Among all 48,000 compounds or so, about 550 (1.1%) were called active. Another 4% or so got no clear call; they are omitted. No stated cut-off is given here; in the data, active means potency below about 15 µM; inconclusive means mostly about 16 µM to 33 µM; inactive means weaker than that. The list shows a part of the results.
Biological target: Lysosomal acid glucosylceramidase (Homo sapiens) (UniProt P04062)
Test: Glucocerebrosidase;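 further: the screen sought inhibitors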
Conditions: purified enzyme, resorufin glucoside fluorescence (screen aimed at inhibitors), 20 min
Summary of the method: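 Wild-type enzyme at 0.2 nM final in 50mM citric acid/KH2PO4, 10mM sodium taurocholate, 0.01% tween-20, pH 5.9, with resorufin beta-D-glucopyranoside at 30 uM final. Compounds titrated, 20 min at RT, red fluorescence read; AC50 from titration.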
Potency means the concentration at half of the fitted maximal effect.

Sequence of UniProt P04062 (P04062 whole entry, looked up): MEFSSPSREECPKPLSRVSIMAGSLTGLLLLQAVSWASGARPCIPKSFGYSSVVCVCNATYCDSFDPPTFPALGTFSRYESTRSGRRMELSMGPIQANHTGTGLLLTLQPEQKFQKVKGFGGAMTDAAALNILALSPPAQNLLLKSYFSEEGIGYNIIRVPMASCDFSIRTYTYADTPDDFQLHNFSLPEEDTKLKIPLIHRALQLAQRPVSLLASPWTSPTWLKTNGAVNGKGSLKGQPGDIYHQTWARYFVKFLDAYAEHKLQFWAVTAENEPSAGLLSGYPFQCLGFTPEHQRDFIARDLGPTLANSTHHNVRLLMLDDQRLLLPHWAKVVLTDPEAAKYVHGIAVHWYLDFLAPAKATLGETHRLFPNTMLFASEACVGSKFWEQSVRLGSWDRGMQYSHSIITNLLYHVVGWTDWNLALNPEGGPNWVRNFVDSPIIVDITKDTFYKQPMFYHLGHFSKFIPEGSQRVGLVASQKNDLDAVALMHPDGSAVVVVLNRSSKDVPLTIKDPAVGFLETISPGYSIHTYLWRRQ

Potency, inactive:
CCOC(=O)c1[nH]c2ccc(OCC)cc2c1NC(=O)CN1CCN(c2ccccc2)CC1 > 76.9 µM
CCCCCn1c(CNC(C)=O)nc2ccccc21 > 76.9 µM
Cc1ccccc1-c1cc(-c2ccccc2O)n[nH]1 > 15.4 µM
Cc1nc(Nc2ccc(S(N)(=O)=O)cc2)oc1C > 76.9 µM
CCOCCCNC(=O)Cc1ccc(OC)c(OC)c1 > 76.9 µM
CCOC(=O)c1c(NC(=O)CSc2nnnn2C)sc(C)c1-c1ccc(C)cc1 > 76.9 µM
CCN(CC)C(=O)Cc1cc(C(=O)O)c2ccccc2n1 > 76.9 µM
Cc1ccc2[nH]c(=S)cc(C)c2c1 > 76.9 µM
Cc1nn(C(=O)c2cccnc2)c(C)c1C > 76.9 µM
Cc1cc(-c2nnc(SCC(=O)NC3CCCC3)o2)no1 > 76.9 µM
Cn1c(=O)c2c(nc(NCCCO)n2Cc2cccc(Br)c2)n(C)c1=O > 76.9 µM
O=C(COc1ccccc1)Nc1cccc(-c2nnc(-c3ccccc3)o2)c1 > 76.9 µM
COc1cccc(OCCOc2c(OC)cccc2OC)c1 > 76.9 µM
CCc1cccc2c(=O)c(C(=O)NCCN3CCOCC3)c[nH]c12 > 76.9 µM
O=C(CCn1c(=O)c2ccccc2n(CC(=O)NCCC2=CCCCC2)c1=O)NCc1ccco1 > 76.9 µM
CSCC[C@H](NC(=O)OC(C)(C)C)C(=O)N1CCC(C(=O)N[C@H](C(=O)O)C(C)C)CC1 > 76.9 µM
COc1cc(-c2nnc3sc(-c4ccccn4)nn23)cc(OC)c1OC > 76.9 µM
Cc1nc(-c2ccc(NC(=O)c3cccs3)cc2)cs1 > 76.9 µM
COc1ccc(C2CC(c3ccc(Cl)cc3)Nc3nc(NC(=O)c4ccco4)nn32)cc1 (stereo not drawn) > 76.9 µM
CC1=C(C(=O)OCc2ccc3c(c2)OCO3)C(c2ccc(F)cc2)NC(=O)N1 (stereo not drawn) > 76.9 µM
CCC(=O)c1ccc(OCC(O)CN2CCN(c3cccc(C(F)(F)F)c3)CC2)cc1 (stereo not drawn) > 76.9 µM
N#CCc1nc(CSc2nc3ccccc3o2)cs1 > 76.9 µM
O=C(NCCN1CCOCC1)c1ccc2c(c1)N(Cc1ccccc1)C(=O)CS2
O=C(NCc1ccc2c(c1)OCO2)C1CCN(S(=O)(=O)c2cccc3nsnc23)CC1 > 76.9 µM
CCN(CC)CCCN1C(=O)CSC1c1ccc2c(c1)OCO2 (stereo not drawn) > 76.9 µM
O=C(CCSCCC(=O)NCC1CCCO1)NCC1CCCO1 (stereo not drawn) > 76.9 µM
CCN(CC)CCCN1C(=O)C(=O)/C(=C(/O)c2ccc3c(c2)OCCO3)C1c1ccco1 (stereo not drawn) > 76.9 µM
Cn1c(=O)c(=O)n(C)c2cc(S(=O)(=O)N3CCOCC3)ccc21 > 76.9 µM
O=C(Nc1cccc(Cl)c1N1CCCC1)c1ccc(Br)o1 > 76.9 µM
COc1ccc2c(-c3ccccc3)cc(N3CCOCC3)nc2c1 > 76.9 µM
Cc1ccc(C)c(NC(=O)c2nnn(Cc3ccccc3)c2N)c1 > 76.9 µM
CCOC(=O)N1CCN(C(=O)CCC(=O)N2CCOc3ccc(C)cc32)CC1 > 76.9 µM
CCn1c(SCC(=O)N2CCOCC2)nnc1-c1cccs1 > 76.9 µM
CC(=O)Nc1ccc(S(=O)(=O)N[C@H](C(=O)O)C(C)C)cc1 > 76.9 µM
CC(C)(C)NC(=O)CSc1nnc(Cc2ccc3c(c2)OCO3)n1C1CCCCC1 > 76.9 µM
CCn1c(Cc2ccccc2)nnc1SCC(=O)Nc1ccc(S(N)(=O)=O)cc1 > 76.9 µM
Nc1c(N2CCOCC2)cc(Cl)c2nonc12 > 76.9 µM
O=C(CC(c1ccccc1)c1cc(Br)ccc1O)NCc1ccco1 (stereo not drawn)
Cc1cccc(N2CCN(c3cc(C)nc4nnnn34)CC2C)c1 (stereo not drawn) > 76.9 µM
COc1ccccc1N1CCN(C(=O)Nc2cccc(C)c2)CC1 > 76.9 µM
CC(=O)N1CC2(CC(=O)OC(C)C)CN(C(C)=O)CC(CC(=O)OC(C)C)(C1)C2=O > 76.9 µM
CCCc1c(O)nc(SCC(=O)NCCc2ccc(OC)c(OC)c2)[nH]c1=O > 76.9 µM
COC(=O)c1ccc(CSc2ncnc3sc(C)c(C)c23)o1 > 76.9 µM
Cc1cccc(N(CC(=O)NC2CCCCC2)C(=O)c2c(C)noc2C)c1 > 76.9 µM
Cc1nnc(NC(=O)C2COc3ccccc3O2)s1 (stereo not drawn)
OC(COCc1cccs1)CN1CCCCCC1 (stereo not drawn) > 76.9 µM
COc1ccc(NC(=O)Cc2nn(C)c(=O)c3ccccc23)c2ncccc12 > 76.9 µM
COCCCNC(=O)C1CCN(S(=O)(=O)c2c(C)noc2/C=C\c2ccc(OC)cc2)CC1 > 76.9 µM
O=C(COc1ncnc2ccccc12)NC1CCS(=O)(=O)C1 (stereo not drawn) > 76.9 µM
COc1cc(C(=O)Nc2ccc3c(c2)C(=O)N(CCC(=O)O)C3=O)cc(OC)c1OC > 76.9 µM
C=CCn1cnc2c(NCc3ccccc3)ncnc21 > 76.9 µM
COc1ccc(-c2nnc(SCC(=O)c3cc(C)n(Cc4cccs4)c3C)o2)cc1 > 76.9 µM
CCOC(=O)C(NC(=O)CC)(Nc1cc(C)on1)C(F)(F)F (stereo not drawn) > 76.9 µM
O=C1N2CCCc3cccc(c32)C12Nc1ccccc1S2 (stereo not drawn) > 76.9 µM
COC(=O)COc1ccc(Oc2cc(C)nc(SC)n2)nn1 > 76.9 µM
Cn1c(-c2ccc3ccccc3n2)nc2cnccc21 > 76.9 µM
Cc1nnc(SCC(=O)NC(=O)NC(C)(C)C)n1N > 76.9 µM
CC(=O)Nc1ccccc1N(C)S(=O)(=O)c1ccc(C)cc1 > 76.9 µM
Cn1nnnc1Sc1ncnc2scc(-c3ccccc3)c12 > 76.9 µM
Cc1cc2ncn(-c3nnnn3-c3ccccc3)c2cc1C > 76.9 µM
O=C(Nc1ccc2oc(=O)ccc2c1)c1cccnc1 > 76.9 µM
Cc1nc2nc(C)c(CCC(=O)NCc3ccc4c(c3)OCO4)c(C)n2n1 > 76.9 µM
CCC(=O)NCCN1CCN(C(=O)CC)CC1 > 76.9 µM
CN(C)C(CNC(=O)CSc1nnc(-c2ccco2)o1)c1ccccc1 (stereo not drawn) > 76.9 µM
COc1ccccc1-c1cc(C(=O)N2CCN(c3ccc(F)cc3)CC2)no1 > 76.9 µM
O=C(CSc1nnc(-c2ccccn2)n1-c1ccccc1)Nc1ccc2c(c1)OCO2 > 76.9 µM
O=S(=O)(CCc1nc2ccccc2o1)c1ccc(Cl)cc1 > 76.9 µM
Cc1ccc(OCCCC(=O)Nc2nncs2)cc1 > 76.9 µM
C1=C(c2cccc3ccccc23)N2CCN=C2S1 > 76.9 µM
CNC(=O)c1ccccc1NC(=O)c1ccc(C)c(S(=O)(=O)N2CCCCC2)c1 > 76.9 µM
CCCC(=O)Nc1nc(C(=O)OCC)cs1 > 76.9 µM
CCOc1ccc(N(CC(=O)NCc2ccccc2OC)S(C)(=O)=O)cc1 > 76.9 µM
CCOc1ccc(C(C)C)cc1S(=O)(=O)n1nc(C)cc1C > 76.9 µM
CCCCOc1ccc(CSc2nncn2N)cc1 > 76.9 µM
Cn1c(SCC(=O)N2CCCCC2)nnc1-c1ccc(S(=O)(=O)N2CCOCC2)cc1 > 76.9 µM
Cn1c(=O)oc2ccc(C(=O)CSc3nnnn3-c3ccccc3)cc21 > 76.9 µM
O=C(NCC(c1cccnc1)N1CCN(c2ccccc2)CC1)C1CCCCC1 (stereo not drawn) > 76.9 µM
COc1cc(S(=O)(=O)N2CCCCCC2)ccc1Cl > 76.9 µM
Cc1ccccc1-c1coc2cc(O)ccc2c1=O > 76.9 µM
Cc1cc(NC(=O)c2cccc(S(=O)(=O)N3CCCCCC3)c2)n(-c2ccccn2)n1 > 76.9 µM
COC(=O)Cc1cc(=O)n(-c2ccccc2)[nH]1 > 76.9 µM
CCC1Oc2ccc(C)cc2N(CC(=O)NCc2cccc(OC)c2)C1=O (stereo not drawn) > 76.9 µM
O=C(COc1cccc2ccccc12)N1CCN(c2ccccn2)CC1 > 76.9 µM
CCC1(C)Cc2c(c(=O)n(-c3ccccc3)c3ncnc(N)c23)CO1 (stereo not drawn) > 76.9 µM
Cn1c(=NC(=O)C2CCN(S(=O)(=O)c3cccs3)CC2)sc2ccccc21 > 76.9 µM
S=C(c1cccs1)N1CCCC1 > 76.9 µM
Cc1sc2nc3n(c(=O)c2c1C)NC(=O)CC3 > 76.9 µM
Cc1ccccc1CSc1nncn1N > 76.9 µM
Cc1ccccc1-n1c(N)cc(=O)[nH]c1=S > 76.9 µM
CCN(CC)CCCNC(=O)C1c2ccccc2C(=O)N1Cc1ccc(C)cc1 (stereo not drawn) > 76.9 µM
CC(Sc1nc2ccccc2c(=O)n1Cc1ccco1)C(=O)c1ccccc1 (stereo not drawn) > 76.9 µM
COC(=O)[C@@H](NC(=O)NC1CCN(Cc2ccccc2)CC1)C(C)C > 76.9 µM
CCOc1cccc(-c2nnc(SCC(=O)Nc3ccc(OC)c(OC)c3)n2N)c1 > 76.9 µM

— PubChem BioAssay AID360 (National Center for Advancing Translational Sciences (NCATS), 2006)
